± gives the standard deviation of the averaged measurements. The list shows a part of the results.
Tested on: PfAP2-I AP2 domain 3 (GST-tagged)
Assay: gcPBM binding intensity (ln(normalized median fluorescence intensity)); higher = stronger DNA binding
Outline: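 Binding intensity is defined as the maximum Masliner-normalised natural-log median intensity across replicate spots for either probe orientation. It was measured on an Agilent 4 × 180k array of primer-extended double-stranded 36-bp intergenic genomic probes and negative controls, to which GST-tagged P. falciparum DNA-binding domains made in E. coli were applied for 1 h in 1× PBS with 1% milk, 0.2 mg/ml BSA, 0.5% salmon testes DNA and 0.03% Triton X-100. Detection was by Alexa488 anti-GST antibody and scanning at 488 nm.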

Sequence | gcPBM binding intensity (ln)
TTTTTTTTTTCTACAAGTACATATTTTCATTTAACA [XGTACX_site6621] | 7.99 ± 0.53
AAATTAAAAAAAAATAAATAAAAAAAAAAAAAAAAT [CACACA_negctrl_site1611] | 7.55 ± 0.42
AAAAAAAAAAAAAAATGTACATATATATATTATAAA [XGTACX_site518] | 8.09 ± 0.31
TATAAAATAAGACATGCATGTTATACATATATATTT [TGCATGCA_site156] | 7.58 ± 0.57
AAACGTATGTTATTTACACACCCTTCCACTTTTATA [CACACA_site3337] | 7.89 ± 0.69
ATGTTTTTTATTCTTCGTACGTATGAACGATAGTGT [XGTACX_site4225] | 8.08 ± 0.59
CATTATTATTTTATAACACACACATATATATTATAT [CACACA_site8405] | 8.09 ± 0.38
AAAAAAAAAAAAATTACACACATACATATAATAATA [CACACA_site8680] | 7.75 ± 0.18
ATATTAAGAATAAACAGTACATATAATAAATACCAT [XGTACX_site5933] | 7.83 ± 0.61
TTTGTGTATATATAATGTACATTATATTTTTATTAT [XGTACX_site6506] | 8.13 ± 0.45
AAAAAAAATATACATACATGCATACATAAGTTTCTA [TGCATGCA_site998] | 7.55 ± 0.73
TATATATATGGACACACACACACATATATATATATA [CACACA_site6121] | 9.2 ± 0.3
ATTAAAAAAAAAGAGCGTACAAATAATTACTTCTTT [XGTACX_site8262] | 7.83 ± 0.3
TATAAATTTATAAATAGTACATATATTTATATATAT [XGTACX_site6433] | 8.12 ± 0.64
CAGATAGACTTATATGCATGCATTCACCTGCCAACA [TGCATGCA_site158] | 8.31 ± 0.92
ATATTACATAATATATGTACACACGCAAATACTTAT [XGTACX_site671] | 7.95 ± 0.35
TAAGCATAAATGTATACATGCGATGCATACACATAT [TGCATGCA_site749] | 7.39 ± 0.64
ATGAAATTATATTGGGGTACGTCAAAAAAGGAGATA [XGTACX_site7451] | 8.19 ± 0.39
GGGTATATATTATTATGTACACATGTATAAAATAAG [XGTACX_site2633] | 8.02 ± 0.3

Sequence | gcPBM binding intensity (ln)
ATTCTATATACACGCACACACACTTATATATATATA [CACACA_site3322] | 9.18 ± 0.23
TTATTATTATATGAATGTACTTAAAAATACATTTTG [XGTACX_site2959] | 7.43 ± 0.49
CCCTTTTCTAAATATTGTACGTATAAATTATATTAC [XGTACX_site7676] | 8.535 ± 0.007
TTGTTCTTTTTTTTTTTATTTTTTAATTTGAAAAGA [CACACA_negctrl_site209] | 7.72 ± 0.5
AAAAAGAAAAAACGAAGTACAATTATAAGATTATAT [XGTACX_site410] | 7.56 ± 0.68
GTACAGATAAATATTACACACATTTTCATTTTTAAC [CACACA_site5140] | 7.86 ± 0.52
TATGTGCCAAGACACACACACATATTTATATTTATA [CACACA_site6360] | 8.09 ± 0.4
TATGAAAAATATCTTTGTACTTAGAAATATATACAC [XGTACX_site5393] | 7.86 ± 0.34
GTGATTTAATTGTGTTGTACATATTTATAAATAAAA [XGTACX_site8966] | 8.37 ± 0.13
AAAAAAAAAAGAAACACACACATTTGTATTTAATAT [CACACA_site5184] | 7.47 ± 0.67
AGGACTAATATTTGAACACACATATAATATATACAT [CACACA_site3998] | 7.71 ± 0.61
AATATATACATATATGTACACACATTACAGATGTAC [CACACA_site8227] | 7.9 ± 0.45
ATAGAATCTGGTAGCTGTACGAGTCGTAGAGTGCAG [XGTACX_site2026] | 8.07 ± 0.57
TTTTTCTTGAATCGAAGTACTTAGGAGGGGATATTT [XGTACX_site2862] | 8.4 ± 0.34
ACACAATATATATATTGTACATACACATATTTACTA [XGTACX_site1872] | 8.13 ± 0.34
GAAATGTATATTTTTACATGCAAATAAAATATATAA [TGCATGCA_site439] | 8.16 ± 0.7
ATAACGACCTAGACGTGTACATACAAAGGAATGAAA [XGTACX_site4870] | 7.89 ± 0.66
CATACACATAGACACACACACATATATACCTATATA [CACACA_site6644] | 8.01 ± 0.4
GAATATAAACATATTACACACATCTATAGGTACATT [CACACA_site6983] | 7.83 ± 0.52

Sequence | gcPBM binding intensity (ln)
ATTTTTTAAAAAGTAACACACACTCTTATAAATAAC [CACACA_site7668] | 7.91 ± 0.52
AAAGTAAAAATATACTGTACAAATTTTTTCCCCTCT [XGTACX_site171] | 7.73 ± 0.52
AAAGAAAGCACATACACACACAAAAAAAAAAAAGAA [CACACA_site776] | 8.03 ± 0.32
AAACAAAAAAAAAAAAAAAAAAAAAAAAAAAAAAAA [GTGCAC_negctrl_site254] | 8.41 ± 1
GATGCACTTTAAAAATGTACTTATACCTTTAATTGT [XGTACX_site6395] | 7.87 ± 0.49
ATATTTATATACAAATGTACGCATATAATATATATA [XGTACX_site1232] | 8.3 ± 0.43
AAAAAAATATTATAATATATATATATATATATATAT [GTGCAC_negctrl_site399] | 9.33 ± 0.79
AGAGATTATAAAATATGTACTAAATATTAAATCTTA [XGTACX_site7050] | 7.38 ± 0.42
ATATATATACATACATACCTATGTATATGTGTAATT [GTGCAC_negctrl_site50] | 8.28 ± 0.45
ATGGTAGTGATTAAAAGTACACGTAATTGTAAAAAT [XGTACX_site387] | 8.25 ± 0.57
TAAACAACTTATAAATGTACACATATTTTAATTACC [XGTACX_site5409] | 7.95 ± 0.38
TAAAAAAAAAAAAATACACACACACCGATATATATA [CACACA_site8498] | 8.17 ± 0.76
AATAAAAACTAAACATGTACGCACATATATATATAT [XGTACX_site8096] | 9.44 ± 0.16
TAAGTGCATGAGATATGTACATATATAAAATATATA [XGTACX_site3294] | 8.735 ± 0.007
TCATAGTCTTAATGACTACACACCTAACTATGCATG [CACACA_site1839] | 7.5 ± 0.54
TTTGTTTTTTCTTTTTGTACATATACAAGATACGTA [XGTACX_site2309] | 7.88 ± 0.49
GTATATATTCATATGGAAAATAAAGGAGAAAACAAG [TGCATGCA_negctrl_site220] | 8.32 ± 0.49
ATGTATGTATAATATACACACTCACAAGCATTCAAA [CACACA_site4306] | 7.67 ± 0.49
